Test results: the supplement of paper PMC4604168 (melanoma cell lines)
This is one part of the list. Repeats are few or missing, and single values can be far off.

Legend:
Assay in all cases: cell count relative to DMSO control; melanoma cells; higher = more viable cells
Details in all cases: library dose: standard library concentration; 72 h
[1] = test system: IST-MEL1
[2] = test system: LB2518-MEL
[3] = test system: LOXIMVI
[4] = test system: MEL-HO
[5] = test system: MZ2-MEL
[6] = test system: MeWo
[7] = test system: RPMI7951
[8] = test system: RVH-421
[9] = test system: SkMel28
[10] = test system: SkMel2
[11] = test system: SkMel30
[12] = test system: SkMel5
[13] = test system: UACC257
[14] = test system: UACC62
[15] = test system: WM115
[16] = test system: WM1716
[17] = test system: WM1745
[18] = test system: WM3526
[19] = test system: WM3619
[20] = test system: WM451Lu
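Further: cells treated in 1,536-well plates, then fixed and DAPI-stained, with nuclei counted from automated high-throughput microscope images.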

SMILES | cell count [1] [%] | cell count [2] [%] | cell count [3] [%] | cell count [4] [%] | cell count [5] [%] | cell count [6] [%] | cell count [7] [%] | cell count [8] [%] | cell count [9] [%] | cell count [10] [%] | cell count [11] [%] | cell count [12] [%] | cell count [13] [%] | cell count [14] [%] | cell count [15] [%] | cell count [16] [%] | cell count [17] [%] | cell count [18] [%] | cell count [19] [%] | cell count [20] [%]
COc1ccc(COc2ccc(Cc3cnc(N)nc3N)cc2OC)cc1 + O=S(=O)(c1ccccc1)N(CC(F)(F)F)c1ccc(C(O)(C(F)(F)F)C(F)(F)F)cc1 [T0901317] (first compound 5 µM, partner dose 7 µM) | 92.1 | 157 | 130 | 91.3 | 101 | 71.2 | 95.3 | 89.2 | 72.1 | 83.7 | 104 | 66.7 | 67.1 | 66.7 | 88.5 | 86 | 71.5 | 82.6 | 80.8 | 96.1
COc1ccc2c(c1)CCC1C2CCC2(C)C(NCCCCCCN3C(=O)C=CC3=O)CCC12 (stereo not given) + CCN(CC)CCCCNc1ncc2cc(-c3cc(OC)cc(OC)c3)c(NC(=O)NC(C)(C)C)nc2n1 [PD173074] (first compound 2 µM, partner dose 0.5 µM) | 87.1 | 80.8 | 74.2 | 84 | 81.8 | 55.7 | 39.4 | 96.4 | 106 | 107 | 85.7 | 75.1 | 79.7 | 53 | 77.7 | 71.6 | 97.1 | 78.4 | 61.7 | 69.8
c1cc(-c2cnn3cc(-c4ccc(OCCN5CCCCC5)cc4)cnc23)ccn1 [Dorsomorphin] + Cn1cc(/C=C2\C(=O)Nc3cccnc32)c2ccccc21 [GW441756] (first compound 2 µM, partner dose 2 µM) | 89.3 | 54 | 120 | 91.5 | 48.8 | 71.1 | 80.4 | 84.5 | 43.7 | 94.7 | 51.4 | 42.3 | 75.4 | 53.9 | 82.9 | 82.9 | 40.9 | 76.8 | 66.7 | 69.7
CCCCCCCCCCCC1=C(O)C(=O)C=C(O)C1=O [Embelin] + CC(C)CCN1c2nc(Nc3cc(F)c(O)c(F)c3)ncc2N(C)C(=O)C1C [BID1870] (first compound 6 µM, partner dose 1 µM) | 83.9 | 131 | 87.3 | 70.2 | 85.4 | 68.2 | 80.8 | 89.9 | 80.4 | 91.9 | 83.6 | 87.9 | 71.3 | 84 | 111 | 97.9 | 88.3 | 65.9 | 76.6 | 86.4
N#Cc1c(O)c2c(-c3ccc(-c4ccccc4O)cc3)csc2[nH]c1=O + COc1ccc2c(c1)CCC1C2CCC2(C)C(NCCCCCCN3C(=O)C=CC3=O)CCC12 [U73122] (first compound 10 µM, partner dose 2 µM) | 80.6 | 92.8 | 70.2 | 86.5 | 87.2 | 68.9 | 22.3 | 101 | 96.9 | 98.9 | 98.5 | 101 | 101 | 105 | 87.2 | 88.9 | 49.7 | 101 | 46 | 96.6
N#Cc1c(O)c2c(-c3ccc(-c4ccccc4O)cc3)csc2[nH]c1=O + Cc1cc([N+](=O)[O-])ccc1NS(=O)(=O)c1cc(Cl)ccc1Cl [FH535] (first compound 10 µM, partner dose 5 µM) | 46.6 | 85.8 | 68.3 | 43.9 | 66.6 | 76.3 | 101 | 58.6 | 50.2 | 83.8 | 82.2 | 79.3 | 78 | 103 | 80.5 | 90.4 | 78.3 | 63.7 | 77.5 | 86.4
COc1ccc(COc2ccc(Cc3cnc(N)nc3N)cc2OC)cc1 + COc1cc2ncnc(Nc3ccc(Oc4ccccc4)cc3)c2cc1OC [SrcI1] (first compound 5 µM, partner dose 10 µM) | 90.6 | 133 | 79.3 | 79.9 | 67.4 | 85.6 | 64.2 | 135 | 69.7 | 92.6 | 105 | 52.7 | 79 | 78.1 | 74.6 | 77.5 | 61.6 | 66.3 | 75.1 | 93.3
COc1cc2ncnc(Nc3ccc(Oc4ccccc4)cc3)c2cc1OC + O=c1cc(-c2cccc3c2Sc2ccccc2S3)oc(N2CCOCC2)c1 [KU55933] (first compound 10 µM, partner dose 5 µM) | 85.8 | 106 | 104 | 79.1 | 75.4 | 76.3 | 67.6 | 136 | 71.4 | 79.8 | 84.4 | 71.5 | 83.9 | 87.4 | 65.1 | 82.7 | 75 | 51.6 | 79.8 | 76.4
